# About 150 (0.041%) of roughly 370,000 compounds were called active. This list was built around the results that the source calls inconclusive (neither active nor inactive); the mix of calls is not that of the screen. The call rests on the fitted dose curve; in most records, active means well fitted inhibition curve with a large enough effect; inconclusive means small, poorly fitted or top-dose-only effect; inactive means flat fitted curve, though single readings scatter. Potencies of inconclusive entries are left out as doubtful fits.
# Target: Beta-lactamase (Escherichia coli (strain K12)) (UniProt P00811)
# Chain of UniProt P00811 (P00811 whole entry, looked up): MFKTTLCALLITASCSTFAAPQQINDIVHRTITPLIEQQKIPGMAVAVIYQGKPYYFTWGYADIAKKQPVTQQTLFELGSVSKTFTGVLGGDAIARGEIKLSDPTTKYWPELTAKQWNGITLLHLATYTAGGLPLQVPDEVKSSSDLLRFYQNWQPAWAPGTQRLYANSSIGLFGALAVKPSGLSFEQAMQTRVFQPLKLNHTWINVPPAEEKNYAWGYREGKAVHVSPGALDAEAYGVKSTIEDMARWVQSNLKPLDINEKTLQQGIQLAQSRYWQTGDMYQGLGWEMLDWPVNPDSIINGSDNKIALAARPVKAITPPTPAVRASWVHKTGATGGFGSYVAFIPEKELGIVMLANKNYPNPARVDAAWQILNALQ
# Test: qHTS Inhibitors of AmpC Beta-Lactamase (assay with detergent); further: nearly all actives have a fitted effect of over 25% in size;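 on activity change, negative = inhibition: 0% = no-compound wells and -100% = no-enzyme wells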
# Conditions: AmpC hydrolysis of nitrocefin, absorbance 480 nm, 0.01% Triton; activity change, negative = inhibition: at 114 µM (top of the series)
# How it was run: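 20 mM phosphate pH 7.0 + 0.01% (detergent screen) or 0.0001% Triton X-100; 5.3 nM AmpC reagent; cpd preinc 15 min RT; nitrocefin (800 uM stock) to start; A480 q20 s × 4 min; Activity was normalised to no-enzyme and no-compound control wells.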
# Potency means the concentration at half of the fitted maximal effect; tags describe the fitted curve by direction and shape.
SMILES,Potency,"activity change, negative = inhibition"
CCCCCCN(C(=O)CCCCCN1C(=O)NC(c2ccc(-c3ccccc3)cc2)C(C(=O)OCc2ccccc2)=C1C)C(C(=O)NCCCC)c1ccc(OCC(=O)OC)cc1 (configuration not stated),"inconclusive [inhibitor, full curve]",
CCOC(=O)C1CCCN(C(=O)c2ccc3c(c2)OCO3)C1 (configuration not stated),"inconclusive [inhibitor, partial curve, poor fit]",
Cc1cc(C)n(CC2CC(=O)N(c3ccc(F)c(Cl)c3)C2=O)n1 (configuration not stated),,inactive: -2.87%
COc1ccc(S(=O)(=O)N2CCN(CC(=O)Nc3cc(Cl)ccc3Cl)CC2)cc1,"inconclusive [inhibitor, full curve, poor fit]",
O=C(O)Cn1nc(-c2ccccc2)cc1-c1ccccc1,,inactive: -3.12%
COC(=O)c1ccc(COC(=O)Cc2n[nH]c(=O)c3ccccc23)cc1,,inactive: -1.69%
Cc1nonc1NC(=O)CSc1nc2ccccc2o1,"inconclusive [inhibitor, partial curve]",
N#CCCN(C(=O)COC(=O)c1ccc2c(c1)NC(=O)CS2)c1ccc2c(c1)OCCO2,"inconclusive [inhibitor, full curve, poor fit]",
CN1CCN(S(=O)(=O)c2ccc(SCCOc3ccccc3)nc2)CC1,"inconclusive [inhibitor, full curve, poor fit]",
O=C1NC(=S)S/C1=C\c1coc2ccc(O)cc2c1=O,,inactive: 4.48%
Cc1ccc(-c2nc3ccccc3n3nnnc23)cc1,"inconclusive [inhibitor, partial curve, poor fit]",
O=C(COC(=O)CNC(=O)c1ccc(Cl)cc1)Nc1ccc(Cl)cc1C(F)(F)F,"inconclusive [inhibitor, partial curve, poor fit]",
CCOc1ccc(S(=O)(=O)N(CC(=O)Nc2cccnc2)c2ccc(F)cc2)cc1,"inconclusive [inhibitor, full curve, poor fit]",
COC(=O)CN1C(=O)CSc2ccc(S(=O)(=O)Nc3ccccc3)cc21,,inactive: 4.99%
Cc1cc(N2CCN(S(=O)(=O)c3ccccc3)CC2)c2ccccc2n1,,inactive: -1.83%
COc1ccc(S(=O)(=O)N2CCCC2CNC(=O)C(=O)NCc2ccc3c(c2)OCO3)cc1 (configuration not stated),"inconclusive [inhibitor, full curve, poor fit]",
Cc1ccc2c(CC(=O)N3CCN(c4cccc(Cl)c4)CC3)coc2c1C,,inactive: 17.1%
COc1ccc(CC(=O)Nc2ccc3c(c2)OCO3)cc1S(=O)(=O)N1CCOCC1,,inactive: -13.4%
O=c1[nH]c2cc3c(cc2cc1CN(Cc1cccnc1)Cc1nnnn1Cc1ccco1)OCCO3,"inconclusive [inhibitor, single point]",
O=C(Nc1ccc(F)cc1F)c1cccc(S(=O)(=O)N2CCCCC2)c1,"inconclusive [inhibitor, full curve, poor fit]",
COC(=O)c1sccc1-c1ccc(C(N)=O)o1,,inactive: 3.99%
CCc1nc(SCC(=O)c2ccc(C)c(C)c2)n[nH]1,"inconclusive [inhibitor, full curve]",
CCc1cc2c(NC(Cc3c[nH]c4ccccc34)C(=O)O)nc(C)nc2s1 (configuration not stated),"inconclusive [inhibitor, full curve, poor fit]",

SMILES,Potency,"activity change, negative = inhibition"
c1ccc2nc3c(nc2c1)OCC1CCCCN31 (configuration not stated),,inactive: -2.17%
CCCCN(CC)CCNC(=O)c1cc2c(=O)[nH]c3ccc(C)cc3c2s1,,inactive: 3.41%
O=C(N/N=C/c1c(O)n(CCc2ccc(F)cc2)c(=O)[nH]c1=O)c1ccncc1,,inactive: -5.39%
O=C(c1cccc(S(=O)(=O)N2CCCC2)c1)N1CCN(c2ncccn2)CC1,"inconclusive [inhibitor, full curve, poor fit]",
CCOP(=O)(OCC)C(NC(=O)Nc1ccc(Cl)cc1)C(=O)N(CC)CC (configuration not stated),"inconclusive [inhibitor, full curve, poor fit]",
CCOC(=O)c1c(NC(=O)CSc2cn(CCNC(=O)c3ccc(OC)c(OC)c3)c3ccccc23)sc2c1CCC2,,inactive: -1.17%
Cc1ccc(C(C)C)cc1OCCn1cncn1,"inconclusive [inhibitor, partial curve]",
COc1cc(C)nc(Oc2ccc(/C=N/O)cc2)n1,"inconclusive [inhibitor, full curve, poor fit]",
CCCC(C(=O)NCC1CCCO1)N(Cc1ccco1)C(=O)CNS(=O)(=O)c1ccccc1 (configuration not stated),"inconclusive [inhibitor, partial curve, poor fit]",
Cc1ccc(OCCn2cnc3cc([N+](=O)[O-])ccc3c2=O)cc1,"inconclusive [inhibitor, full curve, poor fit]",
O=C(N[C@@H]1CCC(=O)N(CC[C@H](Oc2ccccc2)c2ccccc2)CC1)OCc1ccccc1,"inconclusive [inhibitor, full curve, poor fit]",
C=CCn1c(=O)/c(=C2/Sc3cc(OC)ccc3N2C)s/c1=C1\C(=O)N(CC)C(=S)N1C,"inconclusive [inhibitor, single point]",
CCc1ccc(C(=O)NNC(=O)C2CCN(c3ncnc4sc(C)c(C)c34)CC2)cc1,"inconclusive [inhibitor, partial curve, poor fit]",
COc1ccc(NS(=O)(=O)c2cc(N)ccc2N2CCOCC2)cc1,"inconclusive [inhibitor, full curve, poor fit]",
CCOC(=O)[C@H]1[C@H]2COc3ccccc3[C@@H]2N2C(=O)c3ccc(Cl)cc3NC(=O)[C@@]12C,"inconclusive [inhibitor, partial curve]",
CCOc1ccc(OCC(O)CN2CCc3ccccc3C2)cc1 (configuration not stated),"inconclusive [inhibitor, partial curve]",
CCOc1ccccc1CNC(=O)C1CCN(C(=O)N2CCOc3ccc(Cl)cc32)CC1,,inactive: -0.657%
c1ccc(-n2nnnc2Sc2n[nH]c(-c3ccncc3)n2)cc1,"inconclusive [inhibitor, full curve, poor fit]",
O=C(CN1CCN(c2ccc(O)cc2)CC1)Nc1ccccc1C(=O)NCCc1ccccc1,,inactive: -6.93%
COc1cccc(NC(=O)CN(C)C(=O)c2cc(-c3ccco3)nc3ccccc23)c1,,inactive: -16.5%
CS(=O)(=O)Nc1ccc(C(=O)Nc2ccc3c(c2)OCCO3)cc1,"inconclusive [inhibitor, partial curve, poor fit]",
C=CCOc1cccc(C2C(C(=O)c3ccco3)=C(O)C(=O)N2CCN2CCOCC2)c1 (configuration not stated),,inactive: -1.91%
CC(=O)c1cnc(-c2ccccn2)s1,"inconclusive [inhibitor, partial curve, poor fit]",

SMILES,Potency,"activity change, negative = inhibition"
COc1cc(NC(=O)c2cccs2)c(C(=O)OCC(=O)c2cc(C)n(-c3ccc(F)cc3)c2C)cc1OC,"inconclusive [inhibitor, partial curve, poor fit]",
CCOC(=O)c1[nH]c2ccc(OCC)cc2c1CCCN1C(=O)c2ccccc2C1=O,"inconclusive [inhibitor, partial curve, poor fit]",
CC1(C)CC(=O)C2=C(C1)OC(N)=C(C#N)C2c1ccc(OC(=O)N2CCOCC2)cc1 (configuration not stated),"inconclusive [inhibitor, partial curve]",
CN(C(=O)COC(=O)CNC(=O)C12CC3CC(CC(C3)C1)C2)C1CCS(=O)(=O)C1 (configuration not stated),"inconclusive [inhibitor, full curve, poor fit]",
CN(C(=O)c1ccco1)c1nc(-c2ccc(F)cc2)cs1,,inactive: -3.3%
COc1ccc(CC(=O)NCc2ccc(Cl)cc2)cc1S(=O)(=O)N1CCOCC1,"inconclusive [inhibitor, full curve, poor fit]",
Cn1c2c(c(=O)n(C)c1=O)C(C(F)(F)F)(C(F)(F)F)N=C(C1CCCCC1)N2,"inconclusive [inhibitor, single point]",
O=S(=O)(c1ccc2c(c1)OCCO2)N1CCC(n2nnc3cc(C(F)(F)F)ccc32)CC1,,inactive: -10.7%
COc1ccc(-c2cc(C(=O)Nc3cc(C)n(Cc4ccc(Cl)cc4)n3)no2)cc1OC,,inactive: -8.92%
Cc1ccc(O)c(N=CC2=C(O)c3ccccc3C2=O)c1,"inconclusive [inhibitor, partial curve, poor fit]",
COc1ccc(C)cc1NC(=O)CN(C)S(=O)(=O)c1ccc2c(c1)CCCN2C(C)=O,"inconclusive [inhibitor, partial curve, poor fit]",
COc1cccc(/C=N/NC(=O)c2ccoc2C)c1O,,inactive: -2.63%
Fc1ccc(NC(=S)NC2CCN(Cc3ccccc3)CC2)cc1,,inactive: -6.03%
Cn1c(SCC(=O)c2ccccc2)ncc(C(=O)Nc2ccc(F)cc2)c1=O,"inconclusive [inhibitor, full curve, poor fit]",
Cc1ccccc1OCCSc1nc2ccccc2n1CCC(=O)O,"inconclusive [inhibitor, full curve, poor fit]",
COc1cccc(-n2cc(C(=O)NCCCOC(C)C)c3ccccc3c2=O)c1,,inactive: 1.6%
COc1cc(C(=O)NCc2cn3cccc(C)c3n2)cc(OC)c1OC,"inconclusive [inhibitor, partial curve, poor fit]",
CC1(C)CC(=O)C2=C(C1)c1c(ccc3ccccc13)NC2c1ccco1 (configuration not stated),,inactive: -8.97%
Cc1ccsc1C(=O)NCc1ccc(F)cc1,,inactive: 1.58%
Cc1ccc(C)c(NC(=O)CCc2nc3cccnc3n2Cc2cccs2)c1,,inactive: -3.67%
COc1cccc(-c2onc3ccc(C4(C)OCCO4)cc23)c1,"inconclusive [inhibitor, full curve, poor fit]",

# From PubChem BioAssay AID485294 (National Center for Advancing Translational Sciences (NCATS), 2010)
